No constants are given. Whether binding was seen depends on the method and setting. For part of these data: In cells and extracts the contact can be indirect. Some binding calls cover weakened binding; strength is not graded here.

Protein sequences, listed by entry. Tags and fused reporters are not part of them. Lines headed by an entry give the natural chain unless they say otherwise; changes in a name come on top.
UniProt Q8N0S6: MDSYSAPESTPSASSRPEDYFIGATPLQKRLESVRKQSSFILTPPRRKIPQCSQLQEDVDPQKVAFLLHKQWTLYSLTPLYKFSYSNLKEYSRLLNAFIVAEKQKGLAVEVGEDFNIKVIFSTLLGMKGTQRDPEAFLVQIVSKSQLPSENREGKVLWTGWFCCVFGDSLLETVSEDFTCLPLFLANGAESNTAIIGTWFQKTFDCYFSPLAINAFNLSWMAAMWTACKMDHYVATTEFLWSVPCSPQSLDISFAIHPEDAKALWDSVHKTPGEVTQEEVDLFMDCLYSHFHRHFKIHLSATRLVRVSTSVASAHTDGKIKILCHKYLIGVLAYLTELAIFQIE
UniProt Q6IPU0: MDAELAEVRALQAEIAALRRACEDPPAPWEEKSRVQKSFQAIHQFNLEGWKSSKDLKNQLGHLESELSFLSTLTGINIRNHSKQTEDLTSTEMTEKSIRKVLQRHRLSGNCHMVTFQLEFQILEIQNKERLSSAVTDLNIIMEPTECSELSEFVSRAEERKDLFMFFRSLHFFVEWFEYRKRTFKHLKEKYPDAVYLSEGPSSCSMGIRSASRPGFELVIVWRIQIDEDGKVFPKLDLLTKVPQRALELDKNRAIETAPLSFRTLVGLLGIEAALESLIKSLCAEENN
UniProt Q13352: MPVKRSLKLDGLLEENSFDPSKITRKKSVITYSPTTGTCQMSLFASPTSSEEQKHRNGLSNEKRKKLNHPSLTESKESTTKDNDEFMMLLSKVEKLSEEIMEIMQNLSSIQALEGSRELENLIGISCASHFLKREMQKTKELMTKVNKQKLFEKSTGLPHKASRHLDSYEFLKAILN
UniProt Q96H22: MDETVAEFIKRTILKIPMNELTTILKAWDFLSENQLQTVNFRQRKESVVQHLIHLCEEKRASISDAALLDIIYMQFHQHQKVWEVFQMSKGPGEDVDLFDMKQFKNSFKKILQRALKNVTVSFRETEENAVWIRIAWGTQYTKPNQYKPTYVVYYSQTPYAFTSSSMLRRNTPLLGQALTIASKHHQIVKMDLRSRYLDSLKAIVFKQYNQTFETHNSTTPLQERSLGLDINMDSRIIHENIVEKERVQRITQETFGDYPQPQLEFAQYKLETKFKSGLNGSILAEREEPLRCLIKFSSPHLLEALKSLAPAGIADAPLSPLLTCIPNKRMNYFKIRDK
UniProt Q9BS16: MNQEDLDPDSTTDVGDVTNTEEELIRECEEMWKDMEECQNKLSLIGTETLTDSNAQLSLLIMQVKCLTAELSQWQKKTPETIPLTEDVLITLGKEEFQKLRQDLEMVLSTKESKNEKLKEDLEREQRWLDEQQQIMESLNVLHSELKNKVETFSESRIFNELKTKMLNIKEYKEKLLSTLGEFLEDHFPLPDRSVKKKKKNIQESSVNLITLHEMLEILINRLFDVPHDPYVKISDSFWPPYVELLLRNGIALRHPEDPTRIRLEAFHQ
UniProt Q9BU64: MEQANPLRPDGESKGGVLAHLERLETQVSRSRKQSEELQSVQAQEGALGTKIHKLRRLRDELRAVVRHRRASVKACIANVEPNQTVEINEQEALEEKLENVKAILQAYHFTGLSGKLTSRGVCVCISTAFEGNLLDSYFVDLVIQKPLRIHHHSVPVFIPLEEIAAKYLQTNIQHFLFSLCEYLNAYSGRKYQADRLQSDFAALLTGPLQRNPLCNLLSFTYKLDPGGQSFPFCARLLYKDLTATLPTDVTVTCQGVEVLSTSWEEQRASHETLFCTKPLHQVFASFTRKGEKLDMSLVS
UniProt Q71F23: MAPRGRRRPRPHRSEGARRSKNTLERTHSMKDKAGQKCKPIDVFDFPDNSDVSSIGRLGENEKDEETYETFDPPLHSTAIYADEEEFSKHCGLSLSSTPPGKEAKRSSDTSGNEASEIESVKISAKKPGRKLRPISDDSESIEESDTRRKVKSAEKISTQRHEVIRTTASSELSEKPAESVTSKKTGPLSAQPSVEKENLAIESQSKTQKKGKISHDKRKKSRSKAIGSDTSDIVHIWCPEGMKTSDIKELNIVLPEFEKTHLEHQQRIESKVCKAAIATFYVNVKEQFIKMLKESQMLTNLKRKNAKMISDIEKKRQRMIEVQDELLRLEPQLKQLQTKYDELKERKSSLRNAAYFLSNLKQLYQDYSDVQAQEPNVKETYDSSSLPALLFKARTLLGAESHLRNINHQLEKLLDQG
UniProt Q7L2Z9: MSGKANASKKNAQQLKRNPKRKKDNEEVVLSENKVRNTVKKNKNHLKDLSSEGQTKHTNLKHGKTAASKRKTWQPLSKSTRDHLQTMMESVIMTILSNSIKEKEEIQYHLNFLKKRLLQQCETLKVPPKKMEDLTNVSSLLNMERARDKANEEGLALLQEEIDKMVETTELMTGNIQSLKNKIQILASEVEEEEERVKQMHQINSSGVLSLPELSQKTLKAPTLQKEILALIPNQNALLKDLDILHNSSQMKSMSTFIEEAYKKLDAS

In experiment [1] the target is CENP-C in the F3H assay (EGFP-tagged as bait, mCherry-tagged as prey) (human) (UniProt Q03188). The experiment can be described thus: fluorescent three-hybrid (F3H); EGFP fusion (bait) held at a lac operator repeat array by LacI-GBP in BHK cells, mCherry fusion (prey) co-expressed; fixed after about 16 hrs, confocal microscopy.
In experiment [2] the target is CENP-L in the F3H assay (EGFP-tagged as bait, mCherry-tagged as prey) (human) (UniProt Q8N0S6). The experiment is described as above.
Experiment [3] addresses CENP-P in the F3H assay (EGFP-CENP-P as bait, mCherry-CENP-P as prey) (human) (UniProt Q6IPU0). The experiment is described as above.
Experiment [4] concerns the target CENP-R in the F3H assay (EGFP-tagged as bait, mCherry-tagged as prey) (human) (UniProt Q13352). The description is as above.
Experiment [5] concerns the target CENP-N in the F3H assay (EGFP-tagged as bait, mCherry-tagged as prey) (human) (UniProt Q96H22). The experiment is described as above.
Experiment [6] has as its target CENP-K in the F3H assay (EGFP-tagged as bait, mCherry-tagged as prey) (human) (UniProt Q9BS16). The description is as above.
The target in experiment [7] is CENP-O in the F3H assay (EGFP-CENP-O as bait, mCherry-CENP-O as prey) (human) (UniProt Q9BU64). The experiment is described as above.
In another experiment the target is mCherry-CENP-K (human) (UniProt Q9BS16). Put plainly: FRET or BRET; acceptor photo-bleaching FRET, EGFP donor and mCherry acceptor, at kinetochores of living co-transfected HEp-2 cells in interphase. (BRET reads energy transfer from a luciferase to a nearby fluorophore.)
The target in experiment [8] is CENP-U in the F3H assay (EGFP-tagged as bait, mCherry-tagged as prey) (human) (UniProt Q71F23). Put plainly: fluorescent three-hybrid (F3H); EGFP fusion (bait) held at a lac operator repeat array by LacI-GBP in BHK cells, mCherry fusion (prey) co-expressed; fixed after about 16 hrs, confocal microscopy.
The target in a further experiment is mCherry-CENP-P (UniProt Q6IPU0). Put plainly: FRET or BRET; acceptor photo-bleaching FRET, EGFP donor and mCherry acceptor, at kinetochores of living co-transfected HEp-2 cells in interphase.
The target in experiment [9] is CENP-Q in the F3H assay (EGFP-tagged as bait, mCherry-tagged as prey) (human) (UniProt Q7L2Z9). Put plainly: fluorescent three-hybrid (F3H); EGFP fusion (bait) held at a lac operator repeat array by LacI-GBP in BHK cells, mCherry fusion (prey) co-expressed; fixed after about 16 hrs, confocal microscopy.
The target of another experiment is CENP-P-mCherry (human) (UniProt Q6IPU0). The experiment can be described thus: FRET or BRET; acceptor photo-bleaching FRET, EGFP donor and mCherry acceptor, at kinetochores of living co-transfected HEp-2 cells in interphase.
The target in another experiment is CENP-R-mCherry (human) (UniProt Q13352). Described as above.
Another experiment concerns the target mCherry-CENP-R (human) (UniProt Q13352). The experiment is described as above.
For experiment [10], the target named is CENP-O (yeast two-hybrid) (human) (UniProt Q9BU64). The experiment can be described thus: two-hybrid; yeast two-hybrid; methods not told.

As to “CENP-U in the F3H assay (EGFP-tagged as bait, mCherry-tagged as prey) (from UniProt Q71F23 1-418)”, the binding entry was “no binding” in experiment [1], “binds weakly” in experiment [2], “binds” in [3] and “binds” in experiment [4].

With “CENP-Q in the F3H assay (EGFP-tagged as bait, mCherry-tagged as prey) (from UniProt Q7L2Z9 1-268)”, the binding entry in experiment [1] was “no binding”; in experiment [5], “no binding”; in [4] it was “binds”.

As for “CENP-O in the F3H assay (EGFP-CENP-O as bait, mCherry-CENP-O as prey) (from UniProt Q9BU64 1-300)”, the binding result in [1] is “no binding”; in experiment [6], “binds”; in [2], “no binding”; in [5], “no binding”; in experiment [7] it was “no binding”; in experiment [4] it was “binds”.

Consider EGFP-CENP-R (from UniProt Q13352 1-177), for which the binding result with mCherry-CENP-K (human) is listed as “binds”.

Regarding CENP-O-EGFP (from UniProt Q9BU64 1-300), in the experiment with mCherry-CENP-K (human), the binding entry is on record as “binds weakly”.

For the substance “CENP-K in the F3H assay (EGFP-tagged as bait, mCherry-tagged as prey) (from UniProt Q9BS16 1-269)”, the binding result in experiment [1] is listed as “no binding”; in experiment [6], “binds weakly”; in [7] it was “binds”; in experiment [3], “no binding”; in experiment [4] it was “binds”.

Regarding “CENP-P in the F3H assay (EGFP-CENP-P as bait, mCherry-CENP-P as prey) (from UniProt Q6IPU0 1-288)”, the binding result is given as “no binding” in experiment [1]; “no binding” in [6]; “no binding” in experiment [2]; “no binding” in experiment [5]; “no binding” in experiment [3]; “binds weakly” in experiment [4]. Moreover, the binding result in [8] is given as “binds”.

On to CENP-U-EGFP (from UniProt Q71F23 1-418), for which the binding entry with mCherry-CENP-P is reported as “binds”.

For the substance “CENP-N in the F3H assay (EGFP-tagged as bait, mCherry-tagged as prey) (from UniProt Q96H22 1-339)”, the binding result in experiment [7], in experiment [3] and in experiment [9] was “no binding” throughout.

“CENP-L in the F3H assay (EGFP-tagged as bait, mCherry-tagged as prey) (from UniProt Q8N0S6 1-344)”: the binding result in [2] is listed as “no binding”; in experiment [7], “no binding”; in experiment [3] it was “no binding”; in experiment [4] it was “binds”; in [8] it was “binds”.

As for EGFP-CENP-O (from UniProt Q9BU64 1-300), the binding result with mCherry-CENP-K (human) was “binds”.

For the substance CENP-R-EGFP (from UniProt Q13352 1-177), in the experiment with mCherry-CENP-K (human), the binding result is listed as “binds”.

On to “CENP-R in the F3H assay (EGFP-tagged as bait, mCherry-tagged as prey) (from UniProt Q13352 1-177)”, for which the binding entry was “no binding” in [1]; “binds weakly” in experiment [6]; “binds” in experiment [2]; “binds” in [7]; “binds weakly” in experiment [3]; “binds” in experiment [9]. Moreover, the binding result in experiment [8] is “binds”.

Take EGFP-CENP-U (from UniProt Q71F23 1-418): the binding entry in the experiment with CENP-P-mCherry (human) was “binds”; with CENP-R-mCherry (human) it was “binds”; with mCherry-CENP-P, “binds weakly”; with mCherry-CENP-R (human), “binds”.

As for “CENP-K (yeast two-hybrid) (from UniProt Q9BS16 1-269)”, the binding result in experiment [10] is “binds”.

For the substance “CENP-L in the F3H assay (EGFP-tagged as bait, mCherry-tagged as prey) (from UniProt Q8N0S6 1-344) (other; other documents disagree on this pair)”, in [5], the binding entry is listed as “no binding”.

These data come from article PMC3445539.
